In one assay the target is T1, FLAG-DHX34 (human) (UniProt Q14147).
T1 sequence: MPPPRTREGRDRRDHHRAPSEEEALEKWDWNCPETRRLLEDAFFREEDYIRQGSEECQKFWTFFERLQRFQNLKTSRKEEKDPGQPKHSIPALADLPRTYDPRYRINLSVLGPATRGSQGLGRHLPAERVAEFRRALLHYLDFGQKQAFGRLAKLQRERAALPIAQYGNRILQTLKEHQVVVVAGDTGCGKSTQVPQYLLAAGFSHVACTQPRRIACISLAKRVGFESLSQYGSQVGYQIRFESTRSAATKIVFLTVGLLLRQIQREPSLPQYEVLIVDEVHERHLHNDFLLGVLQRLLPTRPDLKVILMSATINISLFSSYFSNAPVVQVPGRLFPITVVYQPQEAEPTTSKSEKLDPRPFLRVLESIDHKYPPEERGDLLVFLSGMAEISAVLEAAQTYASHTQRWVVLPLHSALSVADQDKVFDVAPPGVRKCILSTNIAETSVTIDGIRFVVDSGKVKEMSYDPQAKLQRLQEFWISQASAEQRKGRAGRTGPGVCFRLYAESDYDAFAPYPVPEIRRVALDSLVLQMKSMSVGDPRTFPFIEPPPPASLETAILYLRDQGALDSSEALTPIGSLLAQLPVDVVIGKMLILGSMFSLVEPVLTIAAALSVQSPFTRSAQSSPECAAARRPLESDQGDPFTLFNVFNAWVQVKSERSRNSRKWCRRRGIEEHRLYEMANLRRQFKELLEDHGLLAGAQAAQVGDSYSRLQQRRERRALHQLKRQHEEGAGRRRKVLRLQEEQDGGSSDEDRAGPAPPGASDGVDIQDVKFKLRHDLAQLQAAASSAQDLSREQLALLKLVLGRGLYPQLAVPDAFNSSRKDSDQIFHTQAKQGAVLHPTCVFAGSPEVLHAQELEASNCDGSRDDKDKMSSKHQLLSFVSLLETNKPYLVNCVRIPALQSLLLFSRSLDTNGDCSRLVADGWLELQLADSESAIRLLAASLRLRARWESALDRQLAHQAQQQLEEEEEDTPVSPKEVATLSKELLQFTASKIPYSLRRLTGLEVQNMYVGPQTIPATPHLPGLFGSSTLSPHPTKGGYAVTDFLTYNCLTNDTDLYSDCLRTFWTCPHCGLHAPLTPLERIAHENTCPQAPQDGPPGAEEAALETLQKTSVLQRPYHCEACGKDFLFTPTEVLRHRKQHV
Put plainly: co-IP; anti-FLAG IP of transiently transfected FLAG-DHX34 from HEK293T lysate, in the absence or presence of RNase A; endogenous partners by western blot. In general terms: In western blotting, separated proteins are transferred to a membrane and probed.

Assay [1] has as its target T2, FLAG-UPF1 (wild-type) (human) (UniProt Q92900).
T2 sequence: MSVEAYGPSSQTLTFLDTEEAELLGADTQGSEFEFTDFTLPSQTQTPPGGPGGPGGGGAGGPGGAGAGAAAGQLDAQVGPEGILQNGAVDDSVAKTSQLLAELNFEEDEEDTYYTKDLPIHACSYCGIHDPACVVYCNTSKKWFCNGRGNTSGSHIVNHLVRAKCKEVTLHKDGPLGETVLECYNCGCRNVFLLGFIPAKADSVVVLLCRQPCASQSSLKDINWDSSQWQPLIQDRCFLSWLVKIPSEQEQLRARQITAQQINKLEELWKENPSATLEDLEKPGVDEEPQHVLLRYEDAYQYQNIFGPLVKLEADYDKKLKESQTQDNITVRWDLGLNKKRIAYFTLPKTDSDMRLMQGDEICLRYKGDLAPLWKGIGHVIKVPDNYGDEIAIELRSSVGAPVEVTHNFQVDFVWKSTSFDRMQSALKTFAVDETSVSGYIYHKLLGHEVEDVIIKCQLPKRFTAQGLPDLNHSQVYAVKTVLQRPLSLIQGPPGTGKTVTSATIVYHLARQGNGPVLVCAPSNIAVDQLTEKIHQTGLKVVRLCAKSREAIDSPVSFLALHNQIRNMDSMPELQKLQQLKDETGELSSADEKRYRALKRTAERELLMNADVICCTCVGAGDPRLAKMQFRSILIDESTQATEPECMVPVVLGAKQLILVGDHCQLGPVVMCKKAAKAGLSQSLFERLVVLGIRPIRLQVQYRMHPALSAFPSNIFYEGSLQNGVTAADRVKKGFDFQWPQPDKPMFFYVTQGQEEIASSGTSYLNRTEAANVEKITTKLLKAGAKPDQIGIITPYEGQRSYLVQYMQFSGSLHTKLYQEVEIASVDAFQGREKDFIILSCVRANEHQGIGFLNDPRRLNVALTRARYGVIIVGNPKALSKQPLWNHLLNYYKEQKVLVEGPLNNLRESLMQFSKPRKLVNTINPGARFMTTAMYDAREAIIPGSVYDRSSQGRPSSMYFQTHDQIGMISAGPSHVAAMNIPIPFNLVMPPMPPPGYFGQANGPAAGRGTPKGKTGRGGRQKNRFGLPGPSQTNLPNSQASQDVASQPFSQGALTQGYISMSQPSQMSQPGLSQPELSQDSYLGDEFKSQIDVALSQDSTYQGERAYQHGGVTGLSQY
As to the kind of experiment: co-IP; anti-FLAG IP of transiently transfected FLAG-UPF1 (wild-type or mutants) from HEK293T lysate; endogenous partners by western blot; in the absence or presence of RNase A (Figures 2B, S2B); cells also depleted of DHX34 by shRNA, rescued with T7-DHX34, or cotransfected with T7-DHX34.

These are yes or no findings as the source states them, for the method shown. Binding seen in cells or lysates may run through a third protein. Some results given as binding are weak or reduced against the parent protein; the word gives no strength. Where a sequence is shown, tags or fusion partners need not be part of it.

One molecule from paper PMC4534575, “The RNA Helicase DHX34 Activates NMD by Promoting a Transition from the Surveillance to the Decay-Inducing Complex” (Cell Reports, 2014) can be followed below.

B1: 5' to 3' exonuclease XRN2 (protein, UniProt Q9H0D6 1-950)
chain: MGVPAFFRWLSRKYPSIIVNCVEEKPKECNGVKIPVDASKPNPNDVEFDNLYLDMNGIIHPCTHPEDKPAPKNEDEMMVAIFEYIDRLFSIVRPRRLLYMAIDGVAPRAKMNQQRSRRFRASKEGMEAAVEKQRVREEILAKGGFLPPEEIKERFDSNCITPGTEFMDNLAKCLRYYIADRLNNDPGWKNLTVILSDASAPGEGEHKIMDYIRRQRAQPNHDPNTHHCLCGADADLIMLGLATHEPNFTIIREEFKPNKPKPCGLCNQFGHEVKDCEGLPREKKGKHDELADSLPCAEGEFIFLRLNVLREYLERELTMASLPFTFDVERSIDDWVFMCFFVGNDFLPHLPSLEIRENAIDRLVNIYKNVVHKTGGYLTESGYVNLQRVQMIMLAVGEVEDSIFKKRKDDEDSFRRRQKEKRKRMKRDQPAFTPSGILTPHALGSRNSPGSQVASNPRQAAYEMRMQNNSSPSISPNTSFTSDGSPSPLGGIKRKAEDSDSEPEPEDNVRLWEAGWKQRYYKNKFDVDAADEKFRRKVVQSYVEGLCWVLRYYYQGCASWKWYYPFHYAPFASDFEGIADMPSDFEKGTKPFKPLEQLMGVFPAASGNFLPPSWRKLMSDPDSSIIDFYPEDFAIDLNGKKYAWQGVALLPFVDERRLRAALEEVYPDLTPEETRRNSLGGDVLFVGKHHPLHDFILELYQTGSTEPVEVPPELCHGIQGKFSLDEEAILPDQIVCSPVPMLRDLTQNTVVSINFKDPQFAEDYIFKAVMLPGARKPAAVLKPSDWEKSSNGRQWKPQLGFNRDRRPVHLDQAAFRTLGHVMPRGSGTGIYSNAAPPPVTYQGNLYRPLLRGQAQIPKLMSNMRPQDSWRGPPPLFQQQRFDRGVGAEPLLPWNRMLQTQNAAFQPNQYQMLAGPGGYPPRRDDRGGRQGYPREGRKYPLPPPSGRYNWN
Regarding B1, the binding result (with FLAG-DHX34 (human); in assay [1]) was “binds” throughout.
